Measured values: PubChem BioAssay AID1508623 (National Center for Advancing Translational Sciences (NCATS), 2021)
Among all 48,000 compounds or so, about 450 (0.94%) were called active. The inconclusive results got no clear call from the source; some entries with a clear call stand among them for comparison. Calls come from the whole dose curve; as a rule, active = well fitted inhibition curve with a large enough effect; inconclusive = small, poorly fitted or top-dose-only effect; inactive = no such curve, though single readings can be large or run the other way. Potencies beside an inconclusive call are fits to weak or partial responses and may not hold up.

Test: Primary qHTS for Identification of Small Molecule Inhibitors of Huntingtin Promoter Activity; note: nearly all actives have a fitted effect of over 50% in size
Conditions: HEK293 HTT promoter firefly luciferase reporter (activity 0% = vehicle and -100% = no light), 24 h; series mostly up to 57.5 µM
Outline: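 Luminescence was read after Dual-Glo reagent and a 10 min room-temperature incubation. Values were normalized to vehicle (0% activity) and zero RLU (-100% activity). Reporter HEK293 cells had been exposed to compounds (up to 57.5 uM final) for 24 h.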
Potency is the fitted concentration of half-maximal effect; tags give direction and shape of the fitted curve.

Potency, active:
Cc1noc(/C=C/c2ccco2)c1S(=O)(=O)N1CCC(C(=O)Nc2ccc(F)c(Cl)c2)CC1 31.6 µM

Potency, inconclusive:
CCOC(=O)c1ccc(CN(Cc2ccccc2C)S(=O)(=O)c2ccc(F)c(C)c2)cc1 39.8 µM [inhibitor, single point]
COc1ccc(Nc2ncnc3c2cnn3-c2ccc(C)cc2)cc1Cl 15.8 µM [inhibitor, partial curve]
COc1ccc2nc(C)cc(Nc3ccc(Cl)c(Cl)c3)c2c1 20 µM [inhibitor, partial curve, poor fit]
O=C(Cn1c(=O)oc2cc(S(=O)(=O)N3CCCCC3)ccc21)NCc1ccc(Cl)cc1 35.5 µM [inhibitor, partial curve, poor fit]
Cc1cccc(N2CCN(S(=O)(=O)c3ccc4c(c3)CC(=O)N4C)CC2)c1C 22.4 µM [inhibitor, partial curve, poor fit]
Fc1ccc(Nc2ncnc3onc(-c4ccc(Cl)cc4)c23)cc1Cl 22.4 µM [inhibitor, single point]
COc1ccc(C)cc1NC(=O)NC(C)c1c(-n2cccc2)sc(C)c1C (stereo not drawn) 28.2 µM [inhibitor, single point]
CC(C)Cc1ccc(S(=O)(=O)N2CCN(Cc3noc(CCC(=O)N4CCCCC4)n3)CC2)cc1 25.1 µM [inhibitor, single point]
CCOC(=O)CC(=O)CSc1nc2ccsc2c(=O)n1Cc1ccccc1 39.8 µM [inhibitor, partial curve, poor fit]
CC1(c2ccccc2)CC(C)(C)N(C(=O)c2cccc(Cl)c2)c2ccccc21 (stereo not drawn) 39.8 µM [inhibitor, single point]
O=C1C(Cl)=C(NCCN2CCOCC2)C(=O)c2ncccc21 19.3 µM [inhibitor, partial curve]
COc1ccccc1NC(=O)c1ccc(CN2C(=O)C(C)=C(c3ccc(C)c(C)c3)S2(=O)=O)cc1 10 µM [inhibitor, partial curve]
Cc1ccc(NS(=O)(=O)c2ccc3[nH]c4c(c3c2)CCCC4)cc1N(C)C 39.8 µM [inhibitor, single point]
COc1cc(=C2C=c3ccccc3=N2)[nH]c1=Cc1[nH]c(C)cc1C 10.9 µM [inhibitor, full curve]
COc1ccc(C2=CC(c3ccccc3Cl)n3nc(-c4ccc(Cl)cc4)nc3N2)cc1 (stereo not drawn) 22.4 µM [inhibitor, partial curve, poor fit]
Cc1ccc(Cl)cc1N1CCN(C(=O)Cn2cnc3sc(C)c(S(=O)(=O)N4CCC(C)CC4)c3c2=O)CC1 14.1 µM [inhibitor, partial curve]
COC(=O)c1scc(-c2ccc(C)cc2)c1S(=O)(=O)N1CCN(c2ccc(C(C)=O)cc2)CC1 25.1 µM [inhibitor, single point]
CC1CCc2c(sc(NC(=O)C3c4ccccc4Oc4ccccc43)c2C#N)C1 (stereo not drawn) 35.5 µM [inhibitor, partial curve, poor fit]
Cc1ccc(-n2c(=O)c3c(C)c(C)sc3n(CC(=O)NCc3ccccc3)c2=O)cc1C 31.6 µM [inhibitor, partial curve, poor fit]
COCCn1c(=NC(=O)c2ccc3c(c2)OCCO3)sc2cc(C(=O)OC)ccc21 1 µM [inhibitor, full curve]
Cc1ccc(CN2C(=O)C3(c4ccccc42)N(c2cccc(F)c2)C(=O)CS3(=O)=O)cc1 (stereo not drawn) 17.8 µM [inhibitor, single point]
COc1ccccc1N1CCN(CCCNC(=O)c2cnn(-c3cccc(Cl)c3)c2C2CCN(C(=O)OC(C)(C)C)CC2)CC1 28.2 µM [inhibitor, single point]
CCOc1ccc(CNC(=O)Cn2cc3c(n2)-c2c(oc(C(=O)N4CCOCC4)c2C)CC3)cc1 20 µM [inhibitor, partial curve, poor fit]
COc1cc(NC(=O)NC(C)c2c(-n3cccc3)sc3c2CCCC3)cc(OC)c1OC (stereo not drawn) 39.8 µM [inhibitor, single point]
Cc1ccc(OCc2ccc(-c3nc(C#N)c(NCc4cccnc4)o3)o2)cc1 25.1 µM [inhibitor, single point]
COc1ccccc1C(=O)NCCn1cc(SCc2ccccc2Cl)c2ccccc21 39.8 µM [inhibitor, single point]
Cc1ccc2sc(N3CCN(C(=O)CCS(=O)(=O)c4ccc(F)cc4)CC3)nc2c1C 8.91 µM [inhibitor, full curve, poor fit]
CCC1=Nc2cc(C(=O)NC3CCCC3)ccc2Sc2ccc(Br)cc21 8.91 µM [inhibitor, partial curve]
COc1cccc(CN2CCc3nc(SCC(=O)Nc4ccccc4)[nH]c(=O)c3C2)c1 31.6 µM [inhibitor, partial curve, poor fit]
CCN(C(=O)c1cc2c(s1)-c1ccccc1OC2)c1cc(Cl)ccc1OC 22.4 µM [inhibitor, single point]
O=S(=O)(NCCS(=O)(=O)N1CCN(c2ccccc2F)CC1)c1ccc(Cl)cc1 39.8 µM [inhibitor, single point]
CC(NC(=O)Nc1cc(Cl)ccc1Cl)c1c(-n2cccc2)sc2c1CCCC2 (stereo not drawn) 31.6 µM [inhibitor, partial curve, poor fit]
CCc1c(C)nc2nncn2c1Nc1ccc(C(C)C)cc1 17.8 µM [inhibitor, partial curve, poor fit]
O=C(c1ccc2c(c1)N(Cc1ccccc1F)C(=O)c1ccccc1S2=O)N1CCN(c2ccccc2)CC1 (stereo not drawn) 39.8 µM [inhibitor, single point]
O=C(NCCc1csc(-c2cccc(F)c2)n1)c1cccs1 31.6 µM [inhibitor, partial curve, poor fit]
O=C(Cc1ccccc1)Nc1sc2c(c1C(=O)Nc1ccc(Cl)cc1)CCCC2 17.8 µM [inhibitor, partial curve, poor fit]
COc1ccc(NCc2cc3cc4c(cc3n(CC(=O)Nc3ccc(C)cc3)c2=O)OCO4)cc1 20 µM [inhibitor, single point]
COc1ccc(-c2nc(SCC(=O)Nc3ccc4c(c3)OCO4)c(-c3ccc(OC)cc3)[nH]2)cc1 22.4 µM [inhibitor, partial curve, poor fit]
COc1cc(C(=O)Nc2ccc3oc(-c4ccccc4)nc3c2)cc(OC)c1OC 28.2 µM [inhibitor, single point]
Cn1c2ccccc2c2c(C(=O)N3CCN(c4ccc(F)cc4)CC3)cn(C3CCCCC3)c(=O)c21 39.8 µM [inhibitor, single point]
CCc1cccc(NC(=O)c2ccc(CN3C(=O)C(C)=C(c4ccc(OC)cc4)S3(=O)=O)cc2)c1 28.2 µM [inhibitor, partial curve, poor fit]
Cc1ccccc1CNC(=O)C1CCCN(S(=O)(=O)N(C)c2ccc(F)cc2)C1 (stereo not drawn) 22.4 µM [inhibitor, single point]
CCOc1ccc(N2C(=O)N(Cc3ccc(C)cc3C)c3ccccc3S2(=O)=O)cc1 17.8 µM [inhibitor, single point]
COCCCNC(=O)c1sc2nc(C)c(C(=O)Nc3ccc(C)cc3C)c(-c3ccc(Cl)cc3)c2c1N 20 µM [inhibitor, partial curve, poor fit]
CC(=O)Nc1ccc(S(=O)(=O)N2CCC(Oc3ccc(-n4cnnn4)cc3)CC2)cc1 20 µM [inhibitor, single point]
CCCCOc1ccc(C(=O)N(Cc2ccc(C(C)C)cc2)C2CCS(=O)(=O)C2)cc1 (stereo not drawn) 39.8 µM [inhibitor, partial curve, poor fit]

Potency, inactive:
COc1ccc(C)cc1NC(=O)C(Cc1ccccc1)NS(=O)(=O)c1cccs1 (stereo not drawn)
COc1cc(OC)c(NC(=O)Nc2cccc(OCc3cc(=O)n4ccccc4n3)c2)cc1Cl
Cc1ccc(CNC(=O)c2nc(SCc3ccccc3C)ncc2Cl)cc1
Cc1ccc(-n2ncc3c(Nc4cccc(C)c4C)ncnc32)cc1
CC(C)C[C@H](NC(=O)c1cc2ccccc2s1)C(=O)N1CCN(C(=O)[C@H](CO)NS(=O)(=O)c2ccc(Cl)cc2Cl)CC1
O=C1Nc2ccc(S(=O)(=O)Nc3ccccc3O)c3cccc1c23
c1ccc2c(-c3cnn4cc(-c5ccc(N6CCNCC6)cc5)cnc34)ccnc2c1
CCOc1ccc(C2Nc3ccccc3-c3nnc(SCc4ccccc4)nc3O2)cc1OC (stereo not drawn)
Cc1nc2c(-c3ccc(F)cc3)c(C)nn2c(C)c1CCC(=O)NCc1ccc(Cl)cc1
CN(CC1(C)CCCO1)S(=O)(=O)c1ccc(Cl)c(S(N)(=O)=O)c1 (stereo not drawn)
CN1CC(=O)NC1=NC(=O)Nc1cccc(Cl)c1
